# PubChem BioAssay AID624173 (National Center for Advancing Translational Sciences (NCATS), 2012)
# The campaign covered roughly 410,000 compounds. About 490 (0.12%) were called active. The shares of active, inactive and inconclusive entries below differ from those in the screen. The call rests on the fitted dose curve; in most records, active means well fitted inhibition curve with a large enough effect; inconclusive means small, poorly fitted or top-dose-only effect; inactive means flat fitted curve, though single readings scatter. Potencies of inconclusive entries are doubtful fits and often do not repeat.
# Target: pyruvate kinase (Trypanosoma brucei) (UniProt Q57TT1)
# Test: qHTS of Trypanosoma Brucei Inhibitors; further: nearly all actives have a fitted effect of over 50% in size
# Settings: TbPYK enzyme, Kinase-Glo Plus ATP luminescence, 45 min; series mostly up to 76.8 µM; activity, negative = inhibition: at the top concentration
# Method in brief: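 Enzyme and substrate buffer are dispensed first and compound is pin-transferred. ADP at 130 uM final then starts the reaction, which runs 45 min at room temperature. Detection reagent is added for 10 min before luminescence is imaged.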
# On the % scale 0 is the no-effect control and ±100 the full control effect; potency means the concentration at half of the fitted maximal effect; tags describe the fitted curve by direction and shape.
SMILES,"activity, negative = inhibition",Potency
CSCC[C@H](NC(=O)[C@H]1CC[C@H](CNC(=O)[C@@H](N)Cc2ccccc2)CC1)C(=O)O,inactive: -2.47%,
Cc1ccc(/C=C2\C(=O)NC(=O)N(Cc3ccccc3Cl)C2=O)o1,inactive: -23.8%,
COc1cc(/C=C2\SC(=S)N(Nc3ncc(C(F)(F)F)cc3Cl)C2=O)cc(OC)c1OC,,"inconclusive: 17.8 µM [inhibitor, partial curve]"
CCCCCC1CCC(c2n[nH]c(=S)n2C)CC1 (stereo unspecified),,"inconclusive: 17.8 µM [inhibitor, partial curve]"
N#C/C(=C\c1c(Oc2ccc(Br)cc2)nc2ccccn2c1=O)c1nc2ccccc2s1,,"inconclusive: 15.8 µM [inhibitor, partial curve, poor fit]"
CSc1ccccc1NC(=O)Cn1nc([N+](=O)[O-])c(Cl)c1C,,"inconclusive: 31.6 µM [inhibitor, partial curve]"
CCOc1cc(CNc2ccc(O)cc2)cc(Br)c1OCc1ccccc1F,,"inconclusive: 15.8 µM [inhibitor, partial curve]"
O=C(Nc1ccncc1)c1cc2ccccc2o1,,"inconclusive: 3.98 µM [inhibitor, partial curve, poor fit]"
Cc1ccc2ccc3cc(C(=O)N4CCN(c5ccccc5)CC4)nc3c2[nH]1,inactive: 2.18%,
S=c1[nH]nc(-c2ccco2)n1/N=C/c1cccc(Cl)c1,,"inconclusive: 2 µM [inhibitor, full curve, poor fit]"
COc1cccc(N2C(=O)NC(=O)/C(=C/c3ccc4c(c3)Cc3ccccc3-4)C2=O)c1,,"inconclusive: 31.6 µM [inhibitor, partial curve, poor fit]"
CN(C)C(=S)N=Nc1[nH]c2ccccc2c1O,,"inconclusive: 22.4 µM [inhibitor, partial curve, poor fit]"
CN(C)/C=C1\NC(=S)N(c2ccc(Cl)cc2)C1=O,,"inconclusive: 39.8 µM [inhibitor, partial curve, poor fit]"
C/C(=N\NC(=O)c1ccc2c(c1)OCCO2)c1ccccc1,,"inconclusive: 28.2 µM [inhibitor, partial curve, poor fit]"
Cc1ccc(-n2c(CCc3nc4ccccc4[nH]3)n[nH]c2=S)cc1,,"inconclusive: 5.01 µM [inhibitor, partial curve, poor fit]"
O=C(NNc1c2ccccc2nc2ccccc12)c1ccc(O)cc1,inactive: -10.8%,
Cc1[nH]c2ccccc2c1Cc1n[nH]c(=S)o1,,"inconclusive: 11.2 µM [inhibitor, partial curve, poor fit]"
O=C(CCCCn1c(=S)[nH]c2ccsc2c1=O)NCc1ccc2c(c1)OCO2,,"inconclusive: 5.62 µM [inhibitor, partial curve, poor fit]"
COC(=O)CNC(=O)C1Nc2ccccc2C2C=CCC12 (stereo unspecified),,"inconclusive: 5.01 µM [inhibitor, partial curve]"
CCCC(O)(CCN1CCCCC1)c1ccc(OCC)cc1 (stereo unspecified),inactive: -4.46%,
O=C(Nc1ccc(Cl)c(C(F)(F)F)c1)N1CCCC(O)C1 (stereo unspecified),inactive: 0.797%,
Cc1ccc(-c2csc3n[nH]c(=S)n23)cc1,,"inconclusive: 2.24 µM [inhibitor, partial curve]"
CN(C)c1ccc(/C=N/n2c(COc3ccccc3)n[nH]c2=S)cc1,,"inconclusive: 2.24 µM [inhibitor, full curve]"
c1cc(SSc2ccncc2)ccn1,,"inconclusive: 35.5 µM [inhibitor, single point]"

SMILES,"activity, negative = inhibition",Potency
COc1ccc(C2C3=C(N=C4SCC(=O)N42)c2ccccc2CC3)cc1OC (stereo unspecified),inactive: 1.91%,
COc1ccc(C2=NOC(C(=O)N3CCN(c4ccccc4OC)CC3)C2)cc1 (stereo unspecified),inactive: -1.45%,
Cc1nn(C)c(-c2n[nH]c(=S)n2Cc2ccco2)c1Cl,,"inconclusive: 11.2 µM [inhibitor, partial curve]"
O=C(Oc1csc(=S)n1C(=O)c1ccccc1)c1ccccc1,,"inconclusive: 15.8 µM [inhibitor, partial curve, poor fit]"
O=S(=O)(c1ccc(OCC2CO2)cc1)c1ccc(OCC2CO2)cc1 (stereo unspecified),inactive: -0.0773%,
O=C(Nc1nnc(COc2ccc(Cl)cc2)s1)C1CCCO1 (stereo unspecified),,"inconclusive: 11.2 µM [inhibitor, partial curve, poor fit]"
O=C(COC(=O)c1ccccc1[N+](=O)[O-])c1ccc2c(c1)OCO2,,"inconclusive: 31.6 µM [inhibitor, partial curve, poor fit]"
CCOC(=O)c1[nH]c2cc(OC)c(OC)cc2c1N,inactive: -16.7%,
CCCCn1nc(NC(=O)c2cccs2)c2cc3cc(OC)ccc3nc21,inactive: 5.1%,
O=[N+]([O-])c1ccc(CSc2ccc(S(=O)(=O)N3CCCC3)cn2)cc1,,"inconclusive: 35.5 µM [inhibitor, partial curve, poor fit]"
Cc1ccc(C(=O)CSc2nnc(CNc3ccc(C)cc3C)o2)cc1,inactive: -21.3%,
C=CCN1C(=O)/C(=c2\sc3nc(=O)c(Cc4ccc(OC)c(OC)c4)nn3c2=O)c2ccccc21,,"inconclusive: 25.1 µM [inhibitor, partial curve]"
Cn1c(=O)[nH]c(=O)c2c1[nH]c(=S)n2CCCc1ccccc1,,"inconclusive: 1.26 µM [inhibitor, full curve, poor fit]"
O=C(Nc1ccccc1F)c1ccc(CN2CCc3ccccc3C2)cc1,inactive: -3.64%,
Cc1ccc(/C=C2/C(=O)c3ccc(C(=O)O)cc3C2=O)o1,,"inconclusive: 31.6 µM [inhibitor, partial curve]"
Cc1ccc(/C=C/C(=O)Nc2cccc(S(=O)(=O)N3CCOCC3)c2)o1,,"inconclusive: 31.6 µM [inhibitor, partial curve, poor fit]"
CCc1ccccc1N1CSC2=C(C#N)C(c3ccccc3F)CC(=O)N2C1 (stereo unspecified),,active: 8.91 µM
CCc1nc2cccnc2n1-c1ccc(C(=O)O)cc1,,"inconclusive: 12.6 µM [inhibitor, partial curve]"
C=CCN1C(=O)/C(=C/c2ccc3c(c2)CCCN3CCC)C(=O)NC1=S,,"inconclusive: 28.2 µM [inhibitor, single point]"
CN(Cc1ccccc1C#N)S(=O)(=O)c1cccs1,inactive: -25.8%,
CC[n+]1ccc(C[n+]2ccccc2)c2ccccc21,,"inconclusive: 25.1 µM [inhibitor, partial curve, poor fit]"
COc1ccc(Cl)cc1NC(=O)c1c(NCc2sccc2C)sc2c1CCCC2,,"inconclusive: 31.6 µM [inhibitor, partial curve]"
O=C(COc1ccc2c(c1)CCC2)Nc1ccccn1,,"inconclusive: 28.2 µM [inhibitor, single point]"
Cc1ccc(CN(C)C(=O)c2ccccc2Oc2ccccc2)o1,,"inconclusive: 31.6 µM [inhibitor, partial curve, poor fit]"

SMILES,"activity, negative = inhibition",Potency
O=C(COC(=O)c1ccc[nH]c1=O)Nc1ccc(S(=O)(=O)N2CCCC2)cc1,inactive: -0.113%,
COc1cc(CNn2cn[nH]c2=S)cc(Cl)c1OCc1ccc(F)cc1,,"inconclusive: 6.31 µM [inhibitor, partial curve]"
COc1cc2c(cc1OC)C(COc1ccc([N+](=O)[O-])cc1)N(C(C)=O)CC2 (stereo unspecified),inactive: 0%,
CC1CCN(C(c2ccc(N(C)C)cc2)c2nnnn2C(C)(C)C)CC1 (stereo unspecified),,"inconclusive: 8.91 µM [inhibitor, partial curve, poor fit]"
Cc1ccc(C)c(-n2cc[nH]c2=S)c1,,"inconclusive: 31.6 µM [inhibitor, partial curve]"
COc1cc(/C=C(\C#N)c2nc3ccccc3[nH]2)ccc1OC(=O)c1ccco1,inactive: 6.42%,
Fc1ccccc1-n1cc(-c2ccccc2)[nH]c1=S,,"inconclusive: 2.82 µM [inhibitor, full curve]"
O=C(O)CSc1sc(=S)sc1SCC(=O)O,,"inconclusive: 35.5 µM [inhibitor, partial curve, poor fit]"
COc1ccc2oc(=O)c(C(=O)Nc3ccccc3C)cc2c1,,"inconclusive: 25.1 µM [inhibitor, partial curve]"
Cc1cccc(Cn2c(SCc3ccc(C(=O)NC4CCCCC4)cc3)nc3cccnc32)c1,inactive: -5.99%,
Fc1cccc(/C=N/n2c(C3CCCCC3)n[nH]c2=S)c1,,"inconclusive: 17.8 µM [inhibitor, partial curve, poor fit]"
COc1ccc(NC(=O)c2ccccc2N(Cc2ccccc2)S(C)(=O)=O)c(OC)c1,inactive: -7.43%,
FC(F)(F)c1cnc(NNC(=S)Nc2ccc(Cl)cc2)c(Cl)c1,inactive: -5.81%,
CC(=O)N1CCc2cc(Br)cc(S(=O)(=O)N3CCN(c4cc(C)ccc4C)CC3)c21,inactive: 0.596%,
COCCn1c(C)cc(O)c(C(c2ccc(C)cc2)N2CCCCC2)c1=O (stereo unspecified),inactive: -6.51%,
Cc1ccccc1-n1c(-c2ccoc2C)n[nH]c1=S,,"inconclusive: 14.1 µM [inhibitor, partial curve, poor fit]"
Nc1c(-c2ccccc2)cnn1-c1cccc(C(F)(F)F)c1,inactive: -4.94%,
CCOC(=O)C1CC(=NO)c2ccc(OC)c(OC)c2C1 (stereo unspecified),inactive: -8.39%,
C=CCn1c(SCC(=O)Nc2sccc2C(N)=O)nc2sc(C)c(C)c2c1=O,inactive: 0.134%,
COC(=O)C1Cc2c([nH]c3ccccc23)C2(CCN(Cc3ccccc3)CC2)N1 (stereo unspecified),,"inconclusive: 31.6 µM [inhibitor, partial curve, poor fit]"
COc1ccc(C(=O)NCCSc2ccccc2)cc1OC,,"inconclusive: 31.6 µM [inhibitor, single point]"
CN1C(=O)C(Cc2ccsc2)C(=O)N(C)C1=O,,"inconclusive: 31.6 µM [inhibitor, partial curve, poor fit]"
COCCCNC(=O)CN1C(=O)COc2ccc(S(=O)(=O)N3CCCC3)cc21,inactive: 0.962%,
